Not every detail of the peptide structures is certain; ends, links or a residue may be inferred. At least one read-out could not be matched to a standard name with certainty. Starred links: 1 amine or outer side, 2 acyl side, 3 side chain; linkers in the order of their positions; H or OH if unused. Positions of bridges follow the written chain, without caps; N, C: chain ends. Residues, ends and D or L forms follow the SMILES beside them. *: point of attachment. C20 diacid = O=C(O)CCCCCCCCCCCCCCCCCCC(=O)*; γGlu = O=C(O)[C@H](CCC(=O)[*:2])N[*:1]; AEEA = NCCOCCOCC(=O)O
test: Assay (III) ThT fibrillation assay for physical stability; assay type: physicochemical; conditions: ThT fibrillation assay
How it was run: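 Freshly prepared formulations, pH-adjusted, with 1 μM ThT; four or eight replicates incubated at 37 °C under 960 rpm orbital shaking. Fluorescence (ex 444/em 485 nm) read every 20 min; […]. Peptide concentration measured by RP-HPLC before and after the run.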

For `CC[C@H](C)[C@H](NC(=O)[C@@H]1CCCN1C(=O)CNC(=O)[C@H](Cc1ccccc1)NC(=O)[C@H](CC(N)=O)NC(=O)[C@H](CC(N)=O)NC(=O)[C@H](CO)NC(=O)[C@H](CO)NC(=O)[C@H](Cc1c[nH]cn1)NC(=O)[C@H](Cc1c[nH]cn1)NC(=O)[C@H](CC(C)C)NC(=O)[C@H](Cc1ccccc1)NC(=O)[C@H](CCC(=O)O)NC(=O)[C@H](C)NC(=O)[C@H](CC(C)C)NC(=O)[C@H](CCCNC(=N)N)NC(=O)[C@H](CCC(N)=O)NC(=O)[C@@H](NC(=O)[C@H](C)NC(=O)[C@@H]1CSSC[C@H](NC(=O)COCCOCCNC(=O)COCCOCCNC(=O)CC[C@H](NC(=O)CCCCCCCCCCCCCCCCCCC(=O)O)C(=O)O)C(=O)N[C@@H](CC(N)=O)C(=O)N[C@@H]([C@@H](C)O)C(=O)N[C@@H](C)C(=O)N[C@@H]([C@@H](C)O)C(=O)N1)[C@@H](C)O)C(=O)N[C@@H](CC(C)C)C(=O)N1CCC[C@H]1C(=O)N1CCC[C@H]1C(=O)N[C@H](C(=O)N[C@@H](CC(N)=O)C(=O)N[C@H](C(=O)NCC(=O)N[C@@H](CO)C(=O)N[C@@H](CC(N)=O)C(=O)N[C@H](C(=O)N[C@@H](Cc1ccc(O)cc1)C(N)=O)[C@@H](C)O)C(C)C)[C@@H](C)O` [Example 43, N-alpha-[2-(2-{2-[2-(2-{2-[(S)-4-Carboxy-4-(19-carboxyheptadecanoylamino)butyrylamino]ethoxy}ethoxy)acetylamino]ethoxy}ethoxy)acetyl]-[des1,Glu14,His17]-pramlintide] ({C20 diacid-γGlu-AEEA-AEEA}-CNTATCATQRLAEFLHHSSNNFGPILPPTNVGSNTY-NH2; disulfide 1-6), the “ThT pH 4.0 lag time (h)” value was 0 h.

In order of falling “ThT pH 4.0 recovery (%)” value:
1. CC[C@H](C)[C@H](NC(=O)[C@@H]1CCCN1C(=O)CNC(=O)[C@H](Cc1ccccc1)NC(=O)[C@H](CC(N)=O)NC(=O)[C@H](CC(N)=O)NC(=O)[C@H](CO)NC(=O)[C@H](CO)NC(=O)[C@H](Cc1c[nH]cn1)NC(=O)[C@H](Cc1c[nH]cn1)NC(=O)[C@H](CC(C)C)NC(=O)[C@H](Cc1ccccc1)NC(=O)[C@H](CCC(=O)O)NC(=O)[C@H](C)NC(=O)[C@H](CC(C)C)NC(=O)[C@H](CCCNC(=N)N)NC(=O)[C@H](CCC(N)=O)NC(=O)[C@@H](NC(=O)[C@H](C)NC(=O)[C@@H]1CSSC[C@H](NC(=O)[C@H](CCCCN)NC(=O)CC[C@H](NC(=O)CCCCCCCCCCCCCCCCCCC(=O)O)C(=O)O)C(=O)N[C@@H](CC(N)=O)C(=O)N[C@@H]([C@@H](C)O)C(=O)N[C@@H](C)C(=O)N[C@@H]([C@@H](C)O)C(=O)N1)[C@@H](C)O)C(=O)N[C@@H](CC(C)C)C(=O)N1CCC[C@H]1C(=O)N1CCC[C@H]1C(=O)N[C@H](C(=O)N[C@@H](CC(N)=O)C(=O)N[C@H](C(=O)NCC(=O)N[C@@H](CO)C(=O)N[C@@H](Cc1c[nH]cn1)C(=O)N[C@H](C(=O)N[C@@H](Cc1ccc(O)cc1)C(N)=O)[C@@H](C)O)C(C)C)[C@@H](C)O [Example 55, N-alpha-[(S)-4-Carboxy-4-(19-carboxynonadecanoylamino)butyryl]-[Glu14,His17,His35]-pramlintide] ({C20 diacid-γGlu}-KCNTATCATQRLAEFLHHSSNNFGPILPPTNVGSHTY-NH2; disulfide 2-7 (inferred))  90.6%
2. CC[C@H](C)[C@H](NC(=O)[C@@H]1CCCN1C(=O)CNC(=O)[C@H](Cc1ccccc1)NC(=O)[C@H](CC(N)=O)NC(=O)[C@H](CC(N)=O)NC(=O)[C@H](CO)NC(=O)[C@H](CO)NC(=O)[C@H](Cc1c[nH]cn1)NC(=O)[C@H](Cc1c[nH]cn1)NC(=O)[C@H](CC(C)C)NC(=O)[C@H](Cc1ccccc1)NC(=O)[C@H](CCC(=O)O)NC(=O)[C@H](C)NC(=O)[C@H](CC(C)C)NC(=O)[C@H](CCCNC(=N)N)NC(=O)[C@H](CCC(N)=O)NC(=O)[C@@H](NC(=O)[C@H](C)NC(=O)[C@@H]1CSSC[C@H](NC(=O)[C@H](Cc2c[nH]cn2)NC(=O)[C@H](Cc2c[nH]cn2)NC(=O)CC[C@H](NC(=O)CCCCCCCCCCCCCCCCCCC(=O)O)C(=O)O)C(=O)N[C@@H](CC(N)=O)C(=O)N[C@@H]([C@@H](C)O)C(=O)N[C@@H](C)C(=O)N[C@@H]([C@@H](C)O)C(=O)N1)[C@@H](C)O)C(=O)N[C@@H](CC(C)C)C(=O)N1CCC[C@H]1C(=O)N1CCC[C@H]1C(=O)N[C@H](C(=O)N[C@@H](CC(N)=O)C(=O)N[C@H](C(=O)NCC(=O)N[C@@H](CO)C(=O)N[C@@H](CC(N)=O)C(=O)N[C@H](C(=O)N[C@@H](Cc1ccc(O)cc1)C(N)=O)[C@@H](C)O)C(C)C)[C@@H](C)O [Example 17, N-alpha-[(S)-4-Carboxy-4-(19-carboxynonadecanoylamino)butyryl]-His-[His1,Glu14,His17]-pramlintide] ({C20 diacid-γGlu}-HHCNTATCATQRLAEFLHHSSNNFGPILPPTNVGSNTY-NH2; disulfide 3-8 (inferred); C-terminus assumed)  9%
3. CC[C@H](C)[C@H](NC(=O)[C@@H]1CCCN1C(=O)CNC(=O)[C@H](Cc1ccccc1)NC(=O)[C@H](CC(N)=O)NC(=O)[C@H](CC(N)=O)NC(=O)[C@H](CO)NC(=O)[C@H](CO)NC(=O)[C@H](Cc1c[nH]cn1)NC(=O)[C@H](Cc1c[nH]cn1)NC(=O)[C@H](CC(C)C)NC(=O)[C@H](Cc1ccccc1)NC(=O)[C@H](CCC(=O)O)NC(=O)[C@H](C)NC(=O)[C@H](CC(C)C)NC(=O)[C@H](CCCNC(=N)N)NC(=O)[C@H](CCC(N)=O)NC(=O)[C@@H](NC(=O)[C@H](C)NC(=O)[C@@H]1CSSC[C@H](NC(=O)COCCOCCNC(=O)COCCOCCNC(=O)CC[C@H](NC(=O)CCCCCCCCCCCCCCCCCCC(=O)O)C(=O)O)C(=O)N[C@@H](CC(N)=O)C(=O)N[C@@H]([C@@H](C)O)C(=O)N[C@@H](C)C(=O)N[C@@H]([C@@H](C)O)C(=O)N1)[C@@H](C)O)C(=O)N[C@@H](CC(C)C)C(=O)N1CCC[C@H]1C(=O)N1CCC[C@H]1C(=O)N[C@H](C(=O)N[C@@H](CC(N)=O)C(=O)N[C@H](C(=O)NCC(=O)N[C@@H](CO)C(=O)N[C@@H](CC(N)=O)C(=O)N[C@H](C(=O)N[C@@H](Cc1ccc(O)cc1)C(N)=O)[C@@H](C)O)C(C)C)[C@@H](C)O [Example 43, N-alpha-[2-(2-{2-[2-(2-{2-[(S)-4-Carboxy-4-(19-carboxyheptadecanoylamino)butyrylamino]ethoxy}ethoxy)acetylamino]ethoxy}ethoxy)acetyl]-[des1,Glu14,His17]-pramlintide] ({C20 diacid-γGlu-AEEA-AEEA}-CNTATCATQRLAEFLHHSSNNFGPILPPTNVGSNTY-NH2; disulfide 1-6)  4%

In order of rising “ThT pH 4.0 recovery” value:
1. CC[C@H](C)[C@H](NC(=O)[C@@H]1CCCN1C(=O)CNC(=O)[C@H](Cc1ccccc1)NC(=O)[C@H](CC(N)=O)NC(=O)[C@H](CC(N)=O)NC(=O)[C@H](CO)NC(=O)[C@H](CO)NC(=O)[C@H](Cc1c[nH]cn1)NC(=O)[C@H](Cc1c[nH]cn1)NC(=O)[C@H](CC(C)C)NC(=O)[C@H](Cc1ccccc1)NC(=O)[C@H](CCC(=O)O)NC(=O)[C@H](C)NC(=O)[C@H](CC(C)C)NC(=O)[C@H](CCCNC(=N)N)NC(=O)[C@H](CCC(N)=O)NC(=O)[C@@H](NC(=O)[C@H](C)NC(=O)[C@@H]1CSSC[C@H](NC(=O)[C@H](Cc2c[nH]cn2)NC(=O)[C@H](Cc2c[nH]cn2)NC(=O)CC[C@H](NC(=O)CCCCCCCCCCCCCCCCCCC(=O)O)C(=O)O)C(=O)N[C@@H](CC(N)=O)C(=O)N[C@@H]([C@@H](C)O)C(=O)N[C@@H](C)C(=O)N[C@@H]([C@@H](C)O)C(=O)N1)[C@@H](C)O)C(=O)N[C@@H](CC(C)C)C(=O)N1CCC[C@H]1C(=O)N1CCC[C@H]1C(=O)N[C@H](C(=O)N[C@@H](CC(N)=O)C(=O)N[C@H](C(=O)NCC(=O)N[C@@H](CO)C(=O)N[C@@H](CC(N)=O)C(=O)N[C@H](C(=O)N[C@@H](Cc1ccc(O)cc1)C(N)=O)[C@@H](C)O)C(C)C)[C@@H](C)O [Example 17, N-alpha-[(S)-4-Carboxy-4-(19-carboxynonadecanoylamino)butyryl]-His-[His1,Glu14,His17]-pramlintide] ({C20 diacid-γGlu}-HHCNTATCATQRLAEFLHHSSNNFGPILPPTNVGSNTY-NH2; disulfide 3-8 (inferred); C-terminus assumed)  9%
2. CC[C@H](C)[C@H](NC(=O)[C@@H]1CCCN1C(=O)CNC(=O)[C@H](Cc1ccccc1)NC(=O)[C@H](CC(N)=O)NC(=O)[C@H](CC(N)=O)NC(=O)[C@H](CO)NC(=O)[C@H](CO)NC(=O)[C@H](Cc1c[nH]cn1)NC(=O)[C@H](Cc1c[nH]cn1)NC(=O)[C@H](CC(C)C)NC(=O)[C@H](Cc1ccccc1)NC(=O)[C@H](CCC(=O)O)NC(=O)[C@H](C)NC(=O)[C@H](CC(C)C)NC(=O)[C@H](CCCNC(=N)N)NC(=O)[C@H](CCC(N)=O)NC(=O)[C@@H](NC(=O)[C@H](C)NC(=O)[C@@H]1CSSC[C@H](NC(=O)[C@H](CCCCN)NC(=O)CC[C@H](NC(=O)CCCCCCCCCCCCCCCCCCC(=O)O)C(=O)O)C(=O)N[C@@H](CC(N)=O)C(=O)N[C@@H]([C@@H](C)O)C(=O)N[C@@H](C)C(=O)N[C@@H]([C@@H](C)O)C(=O)N1)[C@@H](C)O)C(=O)N[C@@H](CC(C)C)C(=O)N1CCC[C@H]1C(=O)N1CCC[C@H]1C(=O)N[C@H](C(=O)N[C@@H](CC(N)=O)C(=O)N[C@H](C(=O)NCC(=O)N[C@@H](CO)C(=O)N[C@@H](Cc1c[nH]cn1)C(=O)N[C@H](C(=O)N[C@@H](Cc1ccc(O)cc1)C(N)=O)[C@@H](C)O)C(C)C)[C@@H](C)O [Example 55, N-alpha-[(S)-4-Carboxy-4-(19-carboxynonadecanoylamino)butyryl]-[Glu14,His17,His35]-pramlintide] ({C20 diacid-γGlu}-KCNTATCATQRLAEFLHHSSNNFGPILPPTNVGSHTY-NH2; disulfide 2-7 (inferred))  90.6%
